Reference: the supplement of paper PMC12889115
This is one part of the list. Cut-off read from the data, not from the text of the source: active = 25% or less and inactive = the rest. Most values come without repeats; read them as rough.

How the values were obtained:
[1] = test system: Salmonella enterica serovar Typhimurium SL1344; assay: bacterial growth OD600 after 18 h in MHB with 0.5 µg/mL polymyxin B; higher = more bacterial growth (less inhibition); conditions: 25 µM; polymyxin B 0.5 µg/mL; system: broth
Description: (§1)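 Secondary screen of the 553 primary hits at 25 µM. (i) S. Typhimurium SL1344 grown in Mueller-Hinton broth with 0.5 µg/mL polymyxin B, OD600 read after 18 h. (ii) SAFIRE assay: RAW 264.7 macrophages infected with S. Typhimurium sifB::gfp (MOI 30); compound added 2 h post-infection; cells fixed at 18 h; GFP-positive pixel fraction per macrophage imaged by confocal microscopy and expressed as % of DMSO control.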

[2] = test system: Salmonella enterica serovar Typhimurium SL1344; assay: intramacrophage bacterial GFP load (SAFIRE), percent of DMSO control (% of DMSO); higher = more intracellular bacteria (less inhibition); conditions: 25 µM; system: infected RAW 264.7 macrophages
Description: as §1
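Throughout, for bacterial growth OD600 after 18 h in MHB with 0.5 µg/mL polymyxin B: polymyxin B level opens the outer membrane while sparing the inner membrane, with novobiocin wells as reference growth inhibitor.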
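Throughout, for intramacrophage bacterial GFP load (SAFIRE), percent of DMSO control: compounds tested were the hits of an earlier 50 µM broth growth screen of a drug-like diversity library run with polymyxin B.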

| Compound | bacterial growth OD600 [1] | intramacrophage bacterial GFP load [2] |
| --- | --- | --- |
| Cc1ccc(OCC(=O)N2CCC(C(Cc3ccccc3)N(C)C(=O)c3ccoc3C)CC2)cc1 (stereo not given) | -0.001 | inactive: 88.8 |
| Cc1c(C(=O)NCC2COc3ccccc3O2)cnn1-c1ncc2c(n1)-c1ccccc1CCC2 (stereo not given) | 0.007 | inactive: 129 |
| CC(O)(COc1ccccc1)c1ccc2c(c1)CN(Cc1ccc(F)cc1)CCO2 (stereo not given) | -0.01 | inactive: 45.2 |
| O=C(CC1(c2ccccc2)CC(=O)N(CCc2ccccn2)C1=O)N1CCC(Cc2ccccc2)CC1 (stereo not given) | -0.012 | inactive: 45.3 |
| COc1cccc(CN(C)Cc2nc(-c3ccc(C(F)(F)F)cc3)oc2C)c1 | 0 | active: 5.29 |
